Source: the CheMixHub viscosity set
± gives the uncertainty stated by the source. Further values from the same series stand in other lists.

Assay: xn = mol fraction of the nth substance listed

OC[C@@H](O)[C@@H](O)[C@H](O)[C@@H](O)CO + O
viscosity (293.15 K, 101.3 kPa, x1 = 0.00359): 1.12 ± 0.07 mPa·s
viscosity (293.15 K, 101.3 kPa, x1 = 0.01421): 1.46 ± 0.09 mPa·s
viscosity (293.15 K, 101.3 kPa, x1 = 0.02631): 1.95 ± 0.12 mPa·s
viscosity (293.15 K, 101.3 kPa, x1 = 0.03478): 2.49 ± 0.15 mPa·s
viscosity (293.15 K, 101.3 kPa, x1 = 0.0431): 3.07 ± 0.19 mPa·s
viscosity (293.15 K, 101.3 kPa, x1 = 0.05127): 3.84 ± 0.23 mPa·s
viscosity (298.15 K, 101 kPa, x1 = 0.009077): 1.258 ± 0.0098 mPa·s
viscosity (298.15 K, 101 kPa, x1 = 0.01769): 1.612 ± 0.012 mPa·s
viscosity (298.15 K, 101 kPa, x1 = 0.03395): 2.329 ± 0.018 mPa·s
viscosity (298.15 K, 101 kPa, x1 = 0.05124): 3.435 ± 0.026 mPa·s
viscosity (298.15 K, 101 kPa, x1 = 0.06722): 5.221 ± 0.039 mPa·s
viscosity (298.15 K, 101 kPa, x1 = 0.08259): 7.896 ± 0.057 mPa·s
viscosity (298.15 K, 101 kPa, x1 = 0.09747): 11.28 ± 0.079 mPa·s
viscosity (303.15 K, 101.3 kPa, x1 = 0.00359): 0.89 ± 0.05 mPa·s
viscosity (303.15 K, 101.3 kPa, x1 = 0.007156): 0.95 ± 0.06 mPa·s
viscosity (303.15 K, 101.3 kPa, x1 = 0.01769): 1.22 ± 0.07 mPa·s
viscosity (303.15 K, 101.3 kPa, x1 = 0.02631): 1.48 ± 0.09 mPa·s
viscosity (303.15 K, 101.3 kPa, x1 = 0.03478): 1.86 ± 0.11 mPa·s
viscosity (303.15 K, 101.3 kPa, x1 = 0.0431): 2.25 ± 0.14 mPa·s
viscosity (303.15 K, 101.3 kPa, x1 = 0.05127): 2.77 ± 0.17 mPa·s
viscosity (305.15 K, 100 kPa, x1 = 0.0001): 0.8234 ± 0.017 mPa·s
viscosity (310.15 K, 100 kPa, x1 = 0.0001): 0.7795 ± 0.016 mPa·s
viscosity (313.15 K, 101.3 kPa, x1 = 0.00359): 0.72 ± 0.04 mPa·s
viscosity (313.15 K, 101.3 kPa, x1 = 0.007156): 0.77 ± 0.05 mPa·s
viscosity (313.15 K, 101.3 kPa, x1 = 0.01069): 0.83 ± 0.05 mPa·s
viscosity (313.15 K, 101.3 kPa, x1 = 0.01421): 0.9 ± 0.05 mPa·s
viscosity (313.15 K, 101.3 kPa, x1 = 0.01769): 0.98 ± 0.06 mPa·s
viscosity (313.15 K, 101.3 kPa, x1 = 0.02631): 1.15 ± 0.07 mPa·s
viscosity (313.15 K, 101.3 kPa, x1 = 0.03478): 1.4 ± 0.08 mPa·s
viscosity (313.15 K, 101.3 kPa, x1 = 0.0431): 1.69 ± 0.1 mPa·s
viscosity (313.15 K, 101.3 kPa, x1 = 0.05127): 2.04 ± 0.12 mPa·s
viscosity (315.15 K, 100 kPa, x1 = 0.0001): 0.7592 ± 0.016 mPa·s
viscosity (323.15 K, 101.3 kPa, x1 = 0.00359): 0.6 ± 0.04 mPa·s
viscosity (323.15 K, 101.3 kPa, x1 = 0.01069): 0.69 ± 0.04 mPa·s
viscosity (323.15 K, 101.3 kPa, x1 = 0.01421): 0.75 ± 0.05 mPa·s
viscosity (323.15 K, 101.3 kPa, x1 = 0.01769): 0.81 ± 0.05 mPa·s
viscosity (323.15 K, 101.3 kPa, x1 = 0.02631): 0.93 ± 0.06 mPa·s
viscosity (323.15 K, 101.3 kPa, x1 = 0.03478): 1.15 ± 0.07 mPa·s
viscosity (323.15 K, 101.3 kPa, x1 = 0.0431): 1.32 ± 0.08 mPa·s
viscosity (323.15 K, 101.3 kPa, x1 = 0.05127): 1.58 ± 0.1 mPa·s
